Reference: PubChem BioAssay AID2451 (National Center for Advancing Translational Sciences (NCATS), 2010)
Screen size: about 290,000 compounds; about 2,100 (0.72%) were called active. Inconclusive results, whose numbers are uncertain, are shown with a selection of clear calls. Calls come from the whole dose curve; as a rule, active = well fitted inhibition curve with a large enough effect; inconclusive = small, poorly fitted or top-dose-only effect, or effect the other way; inactive = flat fitted curve, though single readings scatter. A potency beside an inconclusive call is a rough fit, not a confirmed value. More than one record can exist for a structure, and the calls need not agree.

biological target: Fructose-bisphosphate aldolase (Giardia intestinalis (strain ATCC 50803 / WB clone C6)) (UniProt A8B2U2); assay: qHTS Assay for Inhibitors of Fructose-1,6-bisphosphate Aldolase from Giardia Lamblia; conditions: purified Giardia FBPA; activity, negative = inhibition: at 59.6 µM (top of the series) unless noted; note: nearly all actives have a fitted effect of over 55% in size
Outline: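 40 nM FBPA preincubated 10 min at RT with compound (up to 57.5 uM final), then substrate plus GAPDH/TPI/NAD/arsenate coupling and diaphorase/resazurin added. Fluorescence read after 20 min at RT, 525/598 nm.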
% is set by controls: 0 for no effect and ±100 for the full control effect; potency is the fitted concentration of half-maximal effect; tags give direction and shape of the fitted curve.

Chain of UniProt A8B2U2 (A8B2U2 whole entry, looked up): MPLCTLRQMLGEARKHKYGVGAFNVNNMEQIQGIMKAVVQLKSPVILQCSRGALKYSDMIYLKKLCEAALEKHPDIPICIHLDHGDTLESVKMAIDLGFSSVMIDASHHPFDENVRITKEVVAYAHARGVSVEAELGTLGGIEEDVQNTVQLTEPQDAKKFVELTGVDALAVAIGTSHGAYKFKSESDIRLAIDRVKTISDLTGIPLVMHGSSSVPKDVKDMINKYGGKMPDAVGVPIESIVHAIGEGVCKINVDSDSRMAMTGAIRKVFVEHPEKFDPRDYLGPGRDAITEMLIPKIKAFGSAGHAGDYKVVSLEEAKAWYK

Row | SMILES | Potency | activity, negative = inhibition
1 | O=C(c1ccccc1)c1cc(Cl)ccc1N1C(=O)C=CC1=O | inconclusive: 15.8 µM [inhibitor, single point] | –
2 | CC(C)NC(=O)CC1Nc2c3ccccc3nc(=S)n2C1=O (centres undefined) | inconclusive: 17.7 µM [inhibitor, single point] | –
3 | Clc1ccc(-c2csc(NNC3=NCCCCC3)n2)cc1 | inconclusive: 17.7 µM [inhibitor, partial curve] | –
4 | COc1ccc(-c2nc3c4ccccc4[nH]c(=O)n3n2)cc1 | – | inactive: 8.06%
5 | O=C(CSc1cccc[n+]1[O-])c1ccc(-c2ccccc2)cc1 | active: 17.7 µM | –
6 | Cc1ccc(OCc2cc(C(=O)Nc3ccccc3)oc2C)cc1 | – | inactive: -8.28%
7 | COCCNC(=O)C(OC(=O)c1cccs1)c1ccccc1 (centres undefined) | – | inactive: 0.156%
8 | CC(Sc1nnc(CNC(=O)c2ccccc2F)n1C)C(=O)Nc1nccs1 (centres undefined) | inconclusive: 44.7 µM [inhibitor, single point] | –
9 | CN1CCN(/N=C2/C(=O)Nc3ccc([N+](=O)[O-])cc32)CC1 | inconclusive: 15.8 µM [inhibitor, single point] | –
10 | CC(C)CNC(=O)COC(=O)c1ccc2c(c1)C(=O)N(Cc1ccco1)C2=O | – | inactive: 7.39%
11 | Cc1ccc(S(=O)(=O)N(C(=O)c2ccncc2)c2ccc(OC(=O)c3ccncc3)c3ccccc23)c(C)c1 | inconclusive: 15.8 µM [inhibitor, partial curve] | –
12 | O=C(CN1CCSCC1)N/N=C/c1ccc(F)c(F)c1 | inconclusive: 22.3 µM [inhibitor, single point] | –
13 | CSc1nsc(/C=C/Nc2ccc(F)cc2)c1C#N | inconclusive: 15.8 µM [inhibitor, partial curve] | –
14 | Cc1cc(C)c(C(=O)O)c(Cl)n1 | inconclusive: 19.9 µM [inhibitor, single point] | –
15 | O=C(N[C@@H](Cc1ccccc1)C(=O)O)c1ccccc1 | – | inactive: 10.1%
16 | CCOC(=O)/C(C#N)=C/c1cn(CCC(=O)O)nc1-c1cccc(Cl)c1 | inconclusive: 17.7 µM [activator, single point] | –
17 | CCOC(=O)c1csc(N)c1-c1ccc([N+](=O)[O-])cc1 | inconclusive: 15.8 µM [inhibitor, single point] | –
18 | CCCCC(=O)Nc1ccc(C(=O)Nc2nc(CC(=O)OCC)cs2)cc1 | inconclusive: 15.8 µM [inhibitor, single point] | –
19 | C=CCc1cc(Cl)ccc1OCCn1ccnc1 | inconclusive: 17.8 µM [inhibitor, partial curve] | –
20 | O=C(/C=C/c1ccccc1Cl)c1ccccc(=O)c1O | inconclusive: 5 µM [inhibitor, single point] | –
21 | O=S(=O)(c1ccccc1F)N1CCN(Cc2nc3ccccc3[nH]2)CC1 | inconclusive: 19.9 µM [inhibitor, partial curve] | –
22 | O=C(CN1CCN(Cc2ccccc2)CC1)NC(c1ccccc1)c1ccccc1 | inconclusive: 3.54 µM [inhibitor, partial curve] | –
23 | Cc1csc(N/N=C/c2ccccn2)n1 | active: 15.8 µM | –
24 | Cn1c2ccccc2c(=O)n2c(=O)c3ccccc3cc12 | inconclusive: 1.26 µM [inhibitor, partial curve] | –
25 | O=C(CCn1ccc2cc(S(=O)(=O)N3CCCC3)ccc21)NCc1cccc(F)c1 | – | inactive: 30%

Row | SMILES | Potency | activity, negative = inhibition
26 | Cc1ccc(NS(=O)(=O)c2cc(N)ccc2Cl)c(C)c1 | inconclusive: 15.8 µM [inhibitor, single point] | –
27 | O=[N+]([O-])c1cccc(CNc2ccc3c(c2)CCC3)c1 | inconclusive: 17.7 µM [inhibitor, partial curve] | –
28 | O=S(=O)(Nc1ccc(-c2nc3cccnc3s2)cc1)c1ccccc1F | – | inactive: 2.44%
29 | O=C(O)c1ccc(-n2c(-c3cc(-c4ccco4)[nH]n3)n[nH]c2=S)cc1 | inconclusive: 15.8 µM [inhibitor, single point] | –
30 | CCC12C(=O)C(CC)(C(c3ccccc3)=C1c1ccccc1)[C@@H]1C(=O)N(c3ccc(C)cc3)C(=O)C12 (some centres undefined) | – | inactive: -3.9%
31 | COC(=O)c1ccc(C(=O)NC(=S)Nc2nc3c(s2)CCCC3)cc1 | inconclusive: 2.81 µM [inhibitor, full curve, poor fit] | –
32 | CCOC(=O)CSc1ccc(S(=O)(=O)N2CCC(C)CC2)cc1[N+](=O)[O-] | – | inactive: 3%
33 | O=Cc1ccc(O)c(O)c1 | inconclusive: 7.92 µM [inhibitor, partial curve] | –
34 | O=C1c2ccccc2C(=O)c2c1ccc1c(=O)n(C3CCCCC3)[nH]c21 | inconclusive: 5 µM [inhibitor, partial curve] | –
35 | Cc1cccc(NNC(N)=S)c1C | inconclusive: 15.8 µM [inhibitor, partial curve] | –
36 | CC(C)OCC(O)CN1CCN(CCN2C(=O)c3cccc4cccc(c34)C2=O)CC1 (centres undefined) | inconclusive: 28.2 µM [inhibitor, single point] | –
37 | CCOc1cc(N2CCOCC2)c(OCC)cc1NC(=O)c1cc(-c2ccco2)nc2ccccc12 | inconclusive: 17.7 µM [inhibitor, single point] | –
38 | COC(=O)c1cc(S(=O)(=O)NCCCN2CCCC2=O)cn1C | – | inactive: 2.77%
39 | Cc1ccc(C(=O)NNC(=S)NC(=O)COc2ccccc2)cc1 | inconclusive: 4.46 µM [inhibitor, partial curve] | –
40 | O=C(Nc1ccc(N2CCN(C(=O)c3ccco3)CC2)cc1)c1ccc(F)cc1 | – | inactive: -2.46%
41 | COc1ccc(C2C(C(=O)c3ccco3)=C(O)C(=O)N2CCN2CCOCC2)cc1 (centres undefined) | inconclusive: 0.631 µM [inhibitor, full curve] | –
42 | COc1ccc(C(=O)N2CCN(Cc3ccccn3)CC2)cc1 | inconclusive: 15.8 µM [inhibitor, partial curve] | –
43 | Cc1nc2ccccc2nc(C)c1=NO | inconclusive: 8.89 µM [inhibitor, partial curve] | –
44 | COc1cccc(CN(C)Cc2cc(=O)oc3cc(O)c(Cl)cc23)c1 | inconclusive: 25.1 µM [inhibitor, partial curve] | –
45 | Cc1cc(NC(=O)c2c(F)cccc2Cl)n(-c2nc3ccccc3[nH]2)n1 | inconclusive: 19.9 µM [inhibitor, single point] | –
46 | COCCOC(=O)c1c(N)n(Cc2ccco2)c2nc3ccccc3nc12 | active: 7.06 µM | –
47 | COCCCn1c(=O)c2ccccc2n2c(=S)[nH]nc12 | active: 7.08 µM | –
48 | CCn1ncc2c(OCc3ccc(C#N)cc3)cc(C)nc21 | inconclusive: 15.8 µM [inhibitor, single point] | –
49 | CCOC(=O)C1CCN(c2nc(N)c3c(N)nc(SCC(=O)O)cc3c2C#N)CC1 | active: 7.06 µM | –
50 | Cc1cc(Cl)ccc1OCCCC(=O)N/N=C/c1cccc([N+](=O)[O-])c1 | inconclusive: 12.6 µM [inhibitor, partial curve] | –

Row | SMILES | Potency | activity, negative = inhibition
51 | C[n+]1cccc2cccc([O-])c21 | active: 0.446 µM | –
52 | COCCNC(=O)COc1ccc(Br)cc1Cl | – | inactive: 3.68%
53 | CC(=C/c1ccco1)/C=N/NC(=O)c1ccncc1 | inconclusive: 14.1 µM [inhibitor, partial curve] | –
54 | FC(F)(F)c1ccccc1NC(=S)Nc1cccc2cnccc12 | inconclusive: 7.92 µM [inhibitor, partial curve] | –
55 | O=C(O)COc1ccccc1/C=N/NC(=O)c1cc2ccccc2cc1O | inconclusive: 22.3 µM [inhibitor, partial curve] | –
56 | O=C(c1ccccc1)N1CCN(CC(O)Cn2ccc3ccccc32)CC1 (centres undefined) | inconclusive: 15.8 µM [inhibitor, partial curve] | –
57 | CN1CSC2=C(C#N)C(c3cccc(OCc4ccccc4)c3)CC(=O)N2C1 (centres undefined) | inconclusive: 3.97 µM [inhibitor, partial curve] | –
58 | S=C(Nc1ccccc1)Nc1nccs1 | active: 0.631 µM | –
59 | O=C(CSc1nnnn1C1CCCC1)Nc1ccccc1N1CCOCC1 | – | inactive: -0.535%
60 | COc1cc(C/C=C/c2ccccc2)c(OC)cc1O | inconclusive: 1.99 µM [inhibitor, full curve] | –
61 | N#Cc1c(-c2ccccc2)nc(-c2ccncc2)[nH]c1=O | inconclusive: 17.7 µM [activator, single point] | –
62 | Cc1cccc(OCCn2ccnc2)c1 | inconclusive: 17.8 µM [inhibitor, partial curve] | –
63 | COCCCN(C(=O)c1ccco1)c1nc(-c2cc(OC)ccc2OC)cs1 | – | inactive: -12.3%
64 | S=C(Nc1cccnc1)Nc1cccc2cnccc12 | inconclusive: 4.46 µM [inhibitor, full curve] | –
65 | N#CC1=C2SCN(c3ccc(F)cc3)CN2C(=O)CC1c1cccc(F)c1 (centres undefined) | active: 7.06 µM | –
66 | CN(CC(=O)NCc1ccccc1Cl)S(=O)(=O)c1cccs1 | – | inactive: 5.66%
67 | COc1cc(/C=C/c2noc(-c3ccccc3O)n2)cc(OC)c1OC | – | inactive: 1.04%
68 | CCc1cccc(NC(=O)Cn2c(-c3ccccc3)cc(C(C)=O)c2C)c1 | – | inactive: 0.713%
69 | COc1cc([N+](=O)[O-])cc(/C=N/NC(=O)Cn2cncn2)c1O | inconclusive: 5.61 µM [inhibitor, full curve, poor fit] | –
70 | O=C(COc1ccccc1)c1cn(Cc2ccccc2)c2ccccc12 | – | inactive: -0.512%
71 | CNCCCOc1ccc(C)cc1OC | inconclusive: 7.92 µM [inhibitor, partial curve] | –
72 | Cc1n[nH]c(=S)n1/N=C/c1cccc(OCc2ccccc2)c1 | – | inactive: 1.42%
73 | Cc1ccc2oc(C(=O)Nc3ccc(S(=O)(=O)Nc4ncccn4)cc3)c(C)c2c1 | inconclusive: 28.2 µM [inhibitor, single point] | –
74 | Cc1cccc(OCC(=O)Nc2nnc(S(=O)(=O)N3CCCCC3)s2)c1 | inconclusive: 35.5 µM [inhibitor, single point] | –
